Our source for the cytotoxicity call and growth inhibition call values is the antibiotic and cytotoxicity screens of Wong et al. (2023).

Each structure is given as a SMILES string. The list shows a part of the results.

In assay [1] the test system is HSkMC (human skeletal muscle cells). Nature of the assay: cytotoxicity call (relative viability < 0.9). Particulars: 10 µM.
Assay [2] relates to HepG2. Nature of the assay: cytotoxicity call (relative viability < 0.9). Particulars: 10 µM.
Assay [3] deals with S. aureus RN4220. Nature of the assay: growth inhibition call (relative growth <= 0.2). Particulars: 50 µM.

For the molecule `FC(F)(F)c1cc(NC(=S)Nc2ccc(Br)cc2-c2nn[nH]n2)cc(C(F)(F)F)c1`, the cytotoxicity call in assay [1] was “active”. In addition, the cytotoxicity call in assay [2] is “inactive”. Moreover, the growth inhibition call in assay [3] was “active”.

On to `C[C@H](CO)N1C[C@H](C)[C@@H](CN(C)S(=O)(=O)c2ccc(F)cc2)Oc2ccc(NS(C)(=O)=O)cc2CC1=O`, for which the cytotoxicity call in assay [1] and in assay [2] was “inactive” in each case. For the same molecule, the growth inhibition call in assay [3] is “inactive”.

Regarding `C[C@@H]1CN([C@H](C)CO)C(=O)c2cccc(NS(=O)(=O)c3ccc(F)cc3)c2O[C@@H]1CN(C)CC1CC1`, the cytotoxicity call in assay [1] and in assay [2] was “inactive” in each case. Further, in assay [3], the growth inhibition call was “inactive”.

For `C[C@@H]1CN([C@@H](C)CO)C(=O)c2cccc(NS(=O)(=O)c3ccc(Cl)cc3)c2O[C@@H]1CN(C)Cc1ccc(-c2ccccc2)cc1`, the cytotoxicity call in assay [1] and in assay [2] was “active” throughout. Further, the growth inhibition call in assay [3] is “inactive”.

As to `C[C@@H]1CN([C@@H](C)CO)C(=O)Cc2cc(NC(=O)Nc3ccc(C(F)(F)F)cc3)ccc2O[C@H]1CN(C)Cc1ccc(Cl)c(Cl)c1`, the cytotoxicity call in assay [1] and in assay [2] was “active” each time. Also, the growth inhibition call in assay [3] was “inactive”.

Consider `COc1ccccc1-c1ccc2c(c1)O[C@H](CN(C)C(=O)c1ccncc1)[C@H](C)CN([C@H](C)CO)S2(=O)=O`, for which the cytotoxicity call in assay [1] and in assay [2] was “inactive” in each case. In addition, the growth inhibition call in assay [3] was “inactive”.

On to `C[C@@H]1CN([C@@H](C)CO)C(=O)c2cc(NC(=O)Cc3ccccc3)ccc2O[C@@H](C)CCCCO[C@@H]1CN(C)C(=O)Nc1ccc2c(c1)OCO2`, for which the cytotoxicity call in assay [1] and in assay [2] was “inactive” each time. The growth inhibition call in assay [3] was “inactive”.

In the case of `COc1ccc(S(=O)(=O)Nc2ccc3c(c2)C(=O)N([C@H](C)CO)C[C@H](C)[C@@H](CN(C)C(=O)NC2CCCCC2)OCCCC[C@@H](C)O3)cc1`, the cytotoxicity call in assay [1] and in assay [2] was “inactive” each time. In addition, the growth inhibition call in assay [3] is “inactive”.

Consider `Cc1cc(C(=O)Nc2cccc3c2O[C@H](CN(C)C(=O)NC2CCCCC2)[C@H](C)CN([C@H](C)CO)C3=O)n(C)n1`, for which the cytotoxicity call in assay [1] and in assay [2] was “inactive” each time. Further, the growth inhibition call in assay [3] was “inactive”.

Consider `C[C@H](CO)N1C[C@H](C)[C@@H](CN(C)Cc2ccc(Cl)c(Cl)c2)Oc2c(NS(=O)(=O)c3ccc(Cl)cc3)cccc2C1=O`, for which the cytotoxicity call in assay [1] and in assay [2] was “inactive” each time. Moreover, the growth inhibition call in assay [3] was “inactive”.

Regarding `CCCNC(=O)C[C@@H]1CC[C@@H]2[C@@H](COc3ccc(NS(=O)(=O)c4ccccc4C)cc3C(=O)N2C)O1`, the cytotoxicity call in assay [1] and in assay [2] was “inactive” in each case. In assay [3], the growth inhibition call was “inactive”.

Consider `c1n[nH]cc1-c1cn[nH]c1`, for which the cytotoxicity call in assay [1] and in assay [2] was “inactive” in each case. In addition, the growth inhibition call in assay [3] was “inactive”.

For the molecule `Cc1noc(C)c1NC(=O)N[C@@H]1C=C[C@@H](CC(=O)N2CCN(C)CC2)O[C@H]1CO`, the cytotoxicity call in assay [1] and in assay [2] was “inactive” throughout. Besides, in assay [3], the growth inhibition call was “inactive”.

On to `O=C(C[C@H]1CC[C@@H]2[C@H](COC[C@@H](O)CN2C(=O)Nc2ccc(Cl)c(Cl)c2)O1)NCc1ccncc1`, for which the cytotoxicity call in assay [1] and in assay [2] was “inactive” throughout. In assay [3], the growth inhibition call is “active”.

On to `O=C(N[C@@H]1CC[C@H](CC(=O)N2CCOCC2)O[C@H]1CO)c1ccc2c(c1)OCO2`, for which the cytotoxicity call in assay [1] and in assay [2] was “inactive” throughout. For the same molecule, the growth inhibition call in assay [3] is “inactive”.

As for `C[C@@H]1CCCCO[C@@H](CN(C)CC2CCCCC2)[C@@H](C)CN([C@@H](C)CO)C(=O)c2cc(NS(=O)(=O)c3ccccc3)ccc2O1`, the cytotoxicity call in assay [1] and in assay [2] was “inactive” in each case. Besides, the growth inhibition call in assay [3] was “inactive”.

`COc1ccc(NC(=O)Nc2ccc3c(c2)C(=O)N([C@@H](C)CO)C[C@H](C)[C@H](CN(C)C(=O)c2ccccc2)OCCCC[C@H](C)O3)cc1`: the cytotoxicity call in assay [1] and in assay [2] was “inactive” in each case. Besides, the growth inhibition call in assay [3] was “inactive”.

With `C[C@H](CO)N1C[C@H](C)[C@H](CN(C)Cc2ccc(C(=O)O)cc2)OCCCC[C@H](C)Oc2ccc(NC(=O)Nc3ccccc3)cc2C1=O`, the cytotoxicity call in assay [1] and in assay [2] was “inactive” throughout. In addition, in assay [3], the growth inhibition call was “inactive”.

Regarding `COc1ccc([Si](C)(C)[C@@H]2[C@@H](CCn3cc([C@H](O)c4ccccc4)nn3)O[C@]3(C(=O)N(C)c4c(Br)cc(C)cc43)[C@H]2C)cc1`, the cytotoxicity call in assay [1] is “active”. For the same molecule, in assay [2], the cytotoxicity call is “inactive”. Further, the growth inhibition call in assay [3] was “inactive”.

Regarding `COc1cc(OC)nc([C@@H](NC(=O)C2CCN(CCN3C(=O)c4ccccc4C3=O)CC2)c2ccc(F)cc2)n1`, the cytotoxicity call in assay [1] and in assay [2] was “inactive” throughout. The growth inhibition call in assay [3] was “inactive”.

On to `O=C(C[C@H]1CC[C@H]2[C@@H](COC[C@@H](O)CN2S(=O)(=O)c2ccccc2Cl)O1)NCc1ccccc1Cl`, for which the cytotoxicity call in assay [1] and in assay [2] was “inactive” throughout. Also, in assay [3], the growth inhibition call was “inactive”.

With `C[C@H]1CCCCO[C@@H](CN(C)C(=O)CCC(F)(F)F)[C@@H](C)CN([C@@H](C)CO)C(=O)c2cc(NC(=O)NC3CCCCC3)ccc2O1`, the cytotoxicity call in assay [1] and in assay [2] was “inactive” in each case. Also, the growth inhibition call in assay [3] is “inactive”.

`Cc1ccc(S[C@]2(C(=O)NC(C)C)CC(=O)N(Cc3cc(C(F)(F)F)cc(C(F)(F)F)c3)[C@@H]2c2ccc(CO)cc2)cc1`: the cytotoxicity call in assay [1] and in assay [2] was “inactive” throughout. The growth inhibition call in assay [3] was “inactive”.

On to `C[C@H](CO)N1C[C@H](C)[C@@H](CN(C)S(=O)(=O)c2cn(C)cn2)OCCCC[C@H](C)Oc2ccc(NC(=O)Nc3ccc(C(F)(F)F)cc3)cc2C1=O`, for which the cytotoxicity call in assay [1] is “active”. In assay [2], the cytotoxicity call is “inactive”. Besides, the growth inhibition call in assay [3] was “inactive”.

For `C[C@@H]1CN([C@@H](C)CO)C(=O)c2cccc(NS(=O)(=O)c3ccc(Cl)cc3)c2O[C@H]1CN(C)C(=O)Nc1cccc2ccccc12`, the cytotoxicity call in assay [1] and in assay [2] was “inactive” in each case. In assay [3], the growth inhibition call is “inactive”.

With `CC(C)CC#Cc1ccc2c(c1)O[C@@H](CN(C)Cc1cncnc1)[C@H](C)CN([C@@H](C)CO)S2(=O)=O`, the cytotoxicity call in assay [1] and in assay [2] was “inactive” each time. Besides, the growth inhibition call in assay [3] is “inactive”.

Regarding `C[C@@H]1CCCCO[C@H](CN(C)Cc2ccc(C(=O)O)cc2)[C@H](C)CN([C@@H](C)CO)C(=O)c2cc(NC(=O)NC3CCCCC3)ccc2O1`, the cytotoxicity call in assay [1] and in assay [2] was “inactive” throughout. The growth inhibition call in assay [3] is “inactive”.

`C[C@@H]1CN([C@H](C)CO)C(=O)Cc2cc(NC(=O)Nc3ccc(C(F)(F)F)cc3)ccc2O[C@@H]1CN(C)Cc1ccc(-c2ccccc2)cc1`: the cytotoxicity call in assay [1] and in assay [2] was “active” each time. The growth inhibition call in assay [3] was “inactive”.
